Experimental data from paper PMC4336329 (PLoS ONE, 2015).
The campaign covered roughly 310,000 compounds. About 2,200 (0.71%) showed an effect of 50% or more. The effect is printed as a negative number. The list shows a part of the results.

Biological target: human ether-à-go-go-related gene (hERG) potassium channel (human, UniProt Q12809)
Test: primary screen, population patch clamp on CHO cells stably expressing hERG

Sequence of human ether-à-go-go-related gene (hERG) potassium channel (Q12809 whole entry, looked up): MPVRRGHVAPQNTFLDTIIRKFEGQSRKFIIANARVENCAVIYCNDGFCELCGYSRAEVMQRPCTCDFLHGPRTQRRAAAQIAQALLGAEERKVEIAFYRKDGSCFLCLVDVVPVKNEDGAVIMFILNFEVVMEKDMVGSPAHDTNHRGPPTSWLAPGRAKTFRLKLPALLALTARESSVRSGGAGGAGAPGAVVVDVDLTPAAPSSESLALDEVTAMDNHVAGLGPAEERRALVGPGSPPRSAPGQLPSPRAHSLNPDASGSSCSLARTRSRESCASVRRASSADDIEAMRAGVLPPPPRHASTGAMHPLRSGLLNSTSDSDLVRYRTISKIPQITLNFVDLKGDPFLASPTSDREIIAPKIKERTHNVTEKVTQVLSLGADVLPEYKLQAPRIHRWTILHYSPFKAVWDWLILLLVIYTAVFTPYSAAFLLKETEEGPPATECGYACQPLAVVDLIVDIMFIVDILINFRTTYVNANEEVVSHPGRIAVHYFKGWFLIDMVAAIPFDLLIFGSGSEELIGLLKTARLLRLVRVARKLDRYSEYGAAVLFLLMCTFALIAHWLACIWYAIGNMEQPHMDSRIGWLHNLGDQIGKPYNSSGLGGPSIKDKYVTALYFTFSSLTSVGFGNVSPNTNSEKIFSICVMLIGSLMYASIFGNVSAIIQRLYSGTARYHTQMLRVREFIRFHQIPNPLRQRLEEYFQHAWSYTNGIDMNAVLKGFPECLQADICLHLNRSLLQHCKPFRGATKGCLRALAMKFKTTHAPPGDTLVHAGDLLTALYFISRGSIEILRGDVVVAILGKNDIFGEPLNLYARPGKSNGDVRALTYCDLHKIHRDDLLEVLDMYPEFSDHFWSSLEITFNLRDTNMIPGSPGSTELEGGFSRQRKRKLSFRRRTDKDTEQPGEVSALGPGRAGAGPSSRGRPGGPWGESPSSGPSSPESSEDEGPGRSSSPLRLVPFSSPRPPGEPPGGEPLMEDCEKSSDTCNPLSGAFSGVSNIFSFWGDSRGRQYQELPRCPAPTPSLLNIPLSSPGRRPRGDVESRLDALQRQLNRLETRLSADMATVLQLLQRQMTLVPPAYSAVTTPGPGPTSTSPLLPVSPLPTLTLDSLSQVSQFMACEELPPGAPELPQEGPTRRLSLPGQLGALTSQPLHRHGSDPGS

Row | Compound | hERG current change (%, negative = inhibition) at 1uM [%]
1 | Cc1cc(C)nc(-n2ncc3c2CC(C)CC3=O)n1 (centres unmarked) | 11.4
2 | Cc1cc(-c2nnc(SCCC(=O)Nc3ccccc3)o2)no1 | 5.74
3 | COc1ccc(C(=O)N2CCc3ccccc32)cc1 | -2.9
4 | Cc1ccccc1N(CC(=O)NC1CCCC1)C(=O)C1(C)CC(=O)N=C2C=CC(Cl)=CN21 (centres unmarked) | 6.51
5 | O=C(CCNS(=O)(=O)c1ccc(Br)cc1)NCc1ccc2c(c1)OCO2 | -1.76
6 | COc1ccc(N2CCN(CC(=O)NC(=O)NCc3ccco3)CC2)cc1 | 10.9
7 | O=C(Nc1ccc(S(=O)(=O)NCC2CCCO2)cc1)c1ccc(Cl)cc1[N+](=O)[O-] (centres unmarked) | 2.26
8 | Cc1cc(C(=O)N2CCCC(C(=O)c3ccc4ccccc4c3)C2)n(C)n1 (centres unmarked) | 13.5
9 | COCC(C)NC(=O)c1cc2cc(OC)ccc2[nH]1 (centres unmarked) | 6.49
10 | CCNC(=O)NC(=O)C(C)OC(=O)C1CCN(S(=O)(=O)c2ccc(C)c(C)c2)CC1 (centres unmarked) | 9.18
11 | CC(=O)c1ccccc1NC(=O)CCNC(=O)c1ccco1 | 22.1
12 | N#Cc1c(SCC(N)=O)nc2c(c1-c1ccc(O)cc1)CCCC2 | 6.79
13 | COc1ccc(S(=O)(=O)N(CC(=O)NCc2ccncc2)c2ccc(C)cc2)cc1OC | 14.4
14 | Cc1ccc(-c2c(C)n([O-])c3c([n+]2=O)CCC3)o1 | 16.5
15 | Cc1sc2nc(SCC(=O)c3cccs3)n(Cc3ccco3)c(=O)c2c1C | -4.53
16 | CCSc1nc2ccccc2c(=O)n1CCc1ccc(OC)c(OC)c1 | 16.5
17 | CCOC(=O)N1CCN(C(=O)c2ccc(NS(=O)(=O)c3ccc4[nH]c(=O)[nH]c4c3)cc2)CC1 | 0.0867
18 | COc1ccc(NC(=O)CSc2nc3nc(-c4cccs4)cc(C(F)(F)F)c3c(=O)[nH]2)c(OC)c1 | -1.97
19 | Cc1cc(C(C)C)n2c(nc3ccccc32)c1C#N | -6.89
20 | CC/C(C)=N/N1C(=O)c2ccccc2NC1(C)CC (centres unmarked) | 6.09
21 | CCOc1ccc(N2CC(C(=O)NCCN3C(=O)S/C(=C\c4cccnc4)C3=O)CC2=O)cc1 (centres unmarked) | 16.3
22 | Cc1ccc(C(=O)N2CCCC(C(F)(F)F)C2)cc1S(=O)(=O)N1CCCCC1 (centres unmarked) | 2.4
23 | Cc1cccc(C)c1N1CCN(S(=O)(=O)c2ccc(F)cc2)CC1 | 9.27

Row | Compound | hERG current change (%, negative = inhibition) at 1uM [%]
24 | Cc1cc(Cl)c2cc3ccccc3cc2n1 | 10.5
25 | O=C(CSc1nc2cc(C(F)(F)F)ccc2n1Cc1ccccc1)NC1CCS(=O)(=O)C1 (centres unmarked) | -0.191
26 | COc1ccc(NS(=O)(=O)c2cccc(NC(=O)c3ccc(S(=O)(=O)N4CCCCCC4)cc3)c2)cc1 | 2.48
27 | COc1ccc(C)cc1NS(=O)(=O)c1ccc2c(c1)oc(=O)n2C | 14.5
28 | COc1ccc(NS(=O)(=O)c2cc(C)ccc2OC)cc1OC | 9.26
29 | COc1ccccc1NC(=O)c1ccc(COc2ccc3c(c2)CCC3)cc1 | 7.43
30 | Clc1ccc2nc(CSc3ccccc3)cn2c1 | 9.26
31 | O=C(Nc1cccnc1)Nc1ccccn1 | 8.59
32 | COc1cc(C(=O)NC(=S)Nc2ccc(NC(=O)c3ccco3)cc2)cc(OC)c1OC | 2.75
33 | Cc1cc(C)n(CCCNC(=O)c2ccc3c(c2)NC(=O)CS3)n1 | 16.7
34 | CC1Cc2ccccc2N1Cc1ccc([N+](=O)[O-])cc1 (centres unmarked) | 17.6
35 | Cc1ccc(NC(=O)CCC(=O)N/N=C/c2cc([N+](=O)[O-])ccc2O)cc1 | 7.56
36 | O=C1OCC/C1=C\c1ccccc1O | 8.27
37 | CCOc1c(Br)cc(/C=C(\C#N)C(=O)NC2CC2)cc1OC | 5.92
38 | CC(C)N(CCc1ccncc1)C(=O)Nc1ccc(F)cc1 | 11.4
39 | CC(=O)N1CCN(CC(=O)Nc2ccc3c(c2)CCC3)CC1 | 11.1
40 | O=C(N/N=C/c1ccccn1)c1cccc([N+](=O)[O-])c1 | 9.34
41 | c1ccn2c(CNc3ncnc4sccc34)nnc2c1 | 13.1
42 | Cc1cc(C)c(-c2csc(NC(=O)COC(=O)c3ccc4c(c3)OCO4)n2)c(C)c1 | -1.36
43 | Cn1c(SCC(=O)NCc2ccc3c(c2)OCO3)nc2scc(-c3cccs3)c2c1=O | 9.47
44 | CC(=Nc1cccc(C)c1)c1sc2ccccc2c1O | 4.32
45 | CC(=O)COc1ccc2c3c(c(=O)oc2c1C)CCCCC3 | -3.73
46 | COc1cc2c(cc1OC)CN(C(=O)c1cc(S(=O)(=O)N3CCOCC3)ccc1Cl)CC2 | -0.583

Row | Compound | hERG current change (%, negative = inhibition) at 1uM [%]
47 | Cc1nn(-c2ccccc2)nc1C(N)=O | 16.5
48 | CCCn1c(N)c(N(CCOC)C(=O)c2ccc(-c3ccccc3)cc2)c(=O)[nH]c1=O | 10.1
49 | N#Cc1ccc(C(=O)NCC(c2ccco2)N2CCCC2)cc1 (centres unmarked) | 4.01
50 | O=C(CNC(=O)c1ccccc1)NCC1COc2ccccc2O1 (centres unmarked) | 1.02
51 | Cc1oc(C2CC2)cc1C(=O)O | -0.675
52 | CC(=O)c1cnc2c(-c3ccc(Cl)cc3)c(C)nn2c1C | 4.09
53 | O=C1NCCN1Cc1ccc(Cl)cc1 | 14.4
54 | CCCCCCCNC(=O)C1(CC2CC(c3ccc(Cl)cc3)=NO2)CCN(C(=O)C2(C)CC2)CC1 (centres unmarked) | -21.1
55 | Cc1cc(N/N=C/c2ccccc2F)nc(NCc2ccccc2)n1 | 10.6
56 | O=C(O)C1C2C=CC(O2)C1C(=O)NCCCn1ccnc1 (centres unmarked) | 8.76
57 | NC(=S)NNc1ccc(Cl)c(Cl)c1 | 13.9
58 | Cc1cc(NC(=O)C2CCN(S(=O)(=O)Cc3ccccc3)CC2)ccc1-n1cnnn1 | 2.92
59 | O=C(c1ccco1)N1CCN(C(=O)C2(S(=O)(=O)c3ccc(Cl)cc3)CC2)CC1 | -12.8
60 | COc1cc(-c2nnc(SCC(=O)/C(C#N)=C(\C)N)o2)cc(OC)c1OC | 5.43
61 | CCCCCn1c(=O)c(Cc2ccccc2)c(O)c2ccccc21 | -5.8
62 | O=C(CNC(=O)C1COc2ccccc2O1)N/N=C/c1ccc([N+](=O)[O-])cc1 (centres unmarked) | -40
63 | CC(NC(=O)/C(C#N)=C/c1cccs1)c1ccccc1 (centres unmarked) | 34.7
64 | COc1ccc(NC(=O)C(NC(C)=O)C(=O)NCc2ccc(F)cc2)cc1 (centres unmarked) | 7.52
65 | CCCCn1c(CCc2ccccc2)nc2cc3[nH]c(=O)c(C(C)C)nc3cc21 | 6.7
66 | O=c1[nH]c(SCc2nc3ccccc3c(=O)n2-c2ccccc2)nc2ccccc12 | 0.0594
67 | CSc1cccc(NC(=S)N(CCCN2CCC(C)CC2)Cc2cccs2)c1 | -11.3
68 | O=C(/C=C/c1ccc([N+](=O)[O-])cc1)Oc1ccc(/C=N/NC(=O)c2ccncc2)cc1 | 12.9
69 | O=[N+]([O-])c1cccc(-c2n[nH]c(=S)n2-c2ccccc2)c1 | 15.8

Row | Compound | hERG current change (%, negative = inhibition) at 1uM [%]
70 | CC(C)CCNc1ncnc2c1nnn2Cc1ccccc1 | 7.52
71 | Cc1ccc(CNC(=O)CCc2c(C)[nH]c(=O)c(C#N)c2C)cc1 | 11.6
72 | COC(=O)c1ccc(CN2C(=O)NC3(CCC(C)CC3)C2=O)o1 (centres unmarked) | 6.48
73 | CC1(C)CC(N2CCCCC2)=CC(=[N+]2CCCCC2)C1.[I-] | 6.32
74 | CNC(=O)NC(=O)C(C)OC(=O)c1ccc(Cl)c(S(=O)(=O)Nc2ccc(F)cc2)c1 (centres unmarked) | 13.4
75 | CCc1ccc(C(=O)OCC(=O)N(CC)c2c(N)n(Cc3ccccc3)c(=O)[nH]c2=O)cc1 | 12
76 | CCN(CC)c1ccc(C(=O)N/N=C/c2ccc(N3CCOCC3)cc2)cc1 | 4.02
77 | Cc1cccc(C(=O)Nc2ccc(O)cc2)c1 | 14.9
78 | Nc1nc(SC23CC4CC(CC(C4)C2)C3)ns1 | 9.35
79 | O=S(=O)(Nc1ccc(Cc2ccncc2)cc1)c1ccc(Br)s1 | 4.64
80 | [O-][n+]1ccccc1SC/C=C/c1ccccc1 | 3.73
81 | COc1ccc(-n2c(SCC(=O)N(C)c3ccccc3)nc3c([nH]c4ccccc43)c2=O)cc1OC | 13.6
82 | CCOc1cccc(CNCc2ccc(C(=O)O)cc2)c1.Cl | 13.6
83 | COc1cc(Cl)c(C)cc1NC(=O)CN1CCCCCC1 | 9.06
84 | COCCOC(=O)c1c(C)oc2ccc(O)c(CN3CCC(C)CC3)c12 | -5.9
85 | CCOC(=O)C(CC(C)C)CP(=O)(O)CNC(=O)OCc1ccccc1 (centres unmarked) | 7.23
86 | CCN(C(=O)COC(=O)c1cc([N+](=O)[O-])ccc1N1CCCCC1)C1CCS(=O)(=O)C1 (centres unmarked) | 11.5
87 | Cl.ClCCN1CCN(c2ccnc3cc(Cl)ccc23)CC1 | 7.03
88 | CCN1CCN(C(=O)c2cc3c(s2)-c2c(C)cccc2OC3)CC1 | 8.01
89 | O=C(NCc1ccc2c(c1)OCO2)C1CCN(S(=O)(=O)c2ccc(F)cc2)CC1 | 12.9
